# In the supplement of paper PMC4166925:
# ± gives the standard deviation of the averaged measurements. In all, about 33,000 sequences were measured (“E-score (dimensionless, -0.5 to 0.5)”: median about -0.049, highest 2% from about 0.37 on). Some of the results follow.
# System: T1, PmTbr T-box DNA-binding domain (GST fusion)
# T1 sequence: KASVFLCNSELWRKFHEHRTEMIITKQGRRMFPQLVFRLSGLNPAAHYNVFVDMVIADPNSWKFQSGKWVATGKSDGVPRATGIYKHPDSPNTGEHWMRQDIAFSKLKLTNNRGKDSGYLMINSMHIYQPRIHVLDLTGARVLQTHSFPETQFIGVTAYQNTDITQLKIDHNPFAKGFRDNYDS
# Test: PBM E-score of 8-mer (E-score (dimensionless, -0.5 to 0.5)); Tbr is Tbrain of the sea star Patiria miniata (Pm) or the sea urchin Strongylocentrotus purpuratus (Sp); higher = stronger binding preference; most listed sequences are background and not binding sites
# Conditions: the construct has about 5 more residues each side
# Experimental: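 Universal protein-binding microarray (Agilent AMADID 016060, 60-bp probes with a 35-bp variable region) incubated with 200 nM GST-fused Patiria miniata Tbr T-box DNA-binding domain (residues 272-466) in PBS pH 7.5. Scored for every ungapped 8-mer (given with its reverse complement) by the Universal PBM Analysis Suite as E-score (modified Wilcoxon-Mann-Whitney enrichment, range -0.5 to 0.5; >0.45 counts as bound) and Z-score of median probe intensity. Two replicate arrays (datasets 1 and 2).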
# 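Note: 200 nM protein in PBS on universal arrays averaged over duplicate arrays.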
row,Sequence,PBM E-score of 8-mer
1,AAATGTGT,0.432 ± 0.011
2,AGACGTCT,-0.325 ± 0.059
3,AGTTCGAG,0.0334 ± 0.076
4,AAATTCAC,0.263 ± 0.021
5,CACCGAAG,0.0253 ± 0.032
6,ATGATCCC,-0.257 ± 0.033
7,GATAAATA,-0.0627 ± 0.026
8,GGCTAAAC,-0.21 ± 0.0053
9,TGGTTGAA,-0.15 ± 0.054
10,GGGCGCAA,0.0355 ± 0.036
11,GGATTATA,-0.0412 ± 0.053
12,AACGTCAC,0.242 ± 0.0035
13,ATCATGCG,0.0708 ± 0.073
14,CGCAAGGC,0.111 ± 0.11
15,ATCCTACA,-0.198 ± 0.0028
16,CGGAGCAC,-0.0608 ± 0.012
17,ACGGGGAG,0.0327 ± 0.077
18,CGTAACAG,0.0681 ± 0.0039
19,ATTCAAAG,-0.157 ± 0.0024
20,CGCGGGTC,0.111 ± 0.12
21,CAACGACA,0.208 ± 0.018
22,CCTTAGTA,-0.208 ± 0.024

row,Sequence,PBM E-score of 8-mer
1,CAGACCTA,-0.199 ± 0.026
2,AACTCCGC,-0.137 ± 0.032
3,CTCGAAAA,-0.0769 ± 0.076
4,CAAAAACG,-0.0281 ± 0.015
5,CAACCAAG,-0.22 ± 0.013
6,CGGGGGCA,-0.118 ± 0.011
7,GAACGATA,-0.0973 ± 0.061
8,ACATGAGC,0.0181 ± 0.055
9,GACGAATC,0.149 ± 0.019
10,AGTAACAG,0.037 ± 0.085
11,CGCTCATA,-0.08565 ± 0.00083
12,AGATACCC,-0.222 ± 0.034
13,AAGCCCGG,-0.201 ± 0.055
14,AAACCCTA,-0.0441 ± 0.018
15,CAGACCCC,-0.263 ± 0.04
16,ACCTCTGG,0.0994 ± 0.077
17,ACAAATCA,0.0922 ± 0.014
18,AGAGATGG,-0.145 ± 0.0083
19,GTGATAAC,0.406 ± 0.02
20,TAGAGAGA,-0.136 ± 0.021
21,CCCCAGGG,0.00916 ± 0.067
22,GGATCACA,0.144 ± 0.042

row,Sequence,PBM E-score of 8-mer
1,GCGTCGCC,0.203 ± 0.033
2,CAATTGCC,0.0195 ± 0.0026
3,CACCGCCA,0.212 ± 0.066
4,CTCCAACC,-0.114 ± 0.032
5,ATGCCCAC,-0.186 ± 0.051
6,CGGTTCTA,-0.0969 ± 0.012
7,CCAGGGAA,-0.178 ± 0.0092
8,GTGTCACA,0.445 ± 0.0066
9,ACGTTACC,0.087 ± 0.0036
10,TGGGTTAA,-0.0374 ± 0.029
11,CGATGGGA,-0.227 ± 0.027
12,ACACCTGG,0.466 ± 0.0053
13,GAAGGTCC,-0.1794 ± 0.0013
14,ATGGTTCG,0.0805 ± 0.036
15,GGTCAATA,-0.248 ± 0.017
16,ACGTACAG,0.0624 ± 0.034
17,ACGACGCG,0.0983 ± 0.016
18,GCAGCAGC,-0.12 ± 0.037
19,GCACATCA,0.167 ± 0.025
20,TAGACTAA,-0.192 ± 0.036
21,AGGAGATG,-0.0689 ± 0.011
22,CACTGTGG,-0.16 ± 0.098

row,Sequence,PBM E-score of 8-mer
1,GGGCCAAA,-0.228 ± 0.029
2,CGTTGATA,-0.00624 ± 0.082
3,GTTCCAGA,-0.137 ± 0.04
4,ATTCAATC,-0.115 ± 0.015
5,CCGGAAGA,0.0589 ± 0.037
6,AGTAAGGC,-0.0738 ± 0.026
7,GAGTTGGC,0.144 ± 0.048
8,CCCCAATA,-0.143 ± 0.0024
9,AAACCATC,-0.0959 ± 0.018
10,AACCGACG,-0.0139 ± 0.077
11,AGTTCTAA,-0.122 ± 0.041
12,AGTGACTC,-0.0798 ± 0.00094
13,ACCACGCA,-0.0762 ± 0.045
14,CATACGCC,-0.101 ± 0.066
15,CTAGTGTC,0.239 ± 0.028
16,AATTAATT,0.114 ± 0.023
17,AGGACGTG,0.188 ± 0.013
18,GTTCTCGA,0.0595 ± 0.038
19,AGGCCCCC,-0.332 ± 0.014
20,GTTCGATA,-0.172 ± 0.02
